The values that follow come from PubChem BioAssay AID1745853 (National Center for Advancing Translational Sciences (NCATS), 2022).

Holding throughout (assay): Primary Screen for Target Class Profiling of Small Molecule Inhibitors of Methyltransferases
The target in test [1] is Glycine N-methyltransferase (Homo sapiens) (UniProt Q14749). To be noted: purified enzyme, MTase-Glo SAH luminescence; measured here: GNMT inhibition; at 40 µM; stronger effect = lower value. In a few lines: (§1)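 Each enzyme was assayed with SAM and its substrate. SAH formation detected by MTase-Glo luminescence; single-point 40 uM screen[…].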
The target of test [2] is Guanidinoacetate N-methyltransferase (Homo sapiens) (UniProt Q14353). As to conditions: purified enzyme, MTase-Glo SAH luminescence; measured here: GAMT inhibition; at 40 µM; stronger effect = lower value. The procedure, abridged: as §1
Test [3] has as its target Histamine N-methyltransferase (Homo sapiens) (UniProt P50135). To be noted: purified enzyme, MTase-Glo SAH luminescence; measured here: HNMT inhibition; at 40 µM; stronger effect = lower value. In a few lines:
as §1

Test [4] concerns the target Nicotinamide N-methyltransferase (Homo sapiens) (UniProt P40261). As to conditions: purified enzyme, MTase-Glo SAH luminescence; measured here: NNMT inhibition; at 40 µM; stronger effect = lower value. The procedure, abridged: as §1
For test [5], the target named is Phenylethanolamine N-methyltransferase (Homo sapiens) (UniProt P11086). As to conditions: purified enzyme, MTase-Glo SAH luminescence; measured here: PNMT inhibition; at 40 µM; stronger effect = lower value. The procedure, abridged: as §1

Each structure is given as a SMILES string. This is one part of the list. Further columns of the screen follow, without active or inactive calls.
% is scaled to controls: 0 for no effect and ±100 for the full control effect.

Take `COC1CCOC2(CCN(C(=O)Cc3ccccc3)CC2)C1` (stereo not drawn): the activity change, negative = inhibition was 1.23% in test [1]; 1.3% in test [2]; 2.95% in test [3]; -1.04% in test [4]; 2.2% in test [5].

With `COc1cccc(N2C(=O)c3cc4ccccc4n3CC2(C)C(=O)NC2CCCC2)c1` (stereo not drawn), the activity change, negative = inhibition in test [1] is -1.48%; in test [2], 0.294%; in test [3], 1.95%; in test [4], 0.752%; in test [5], 1.39%.

In the case of `Cc1[nH]c(/C=C2\C(=O)Nc3ccc(F)cc32)c(C)c1C(=O)NC[C@H](O)CN1CCOCC1`, the activity change, negative = inhibition in test [1] is -13.9%; in test [2] it was 17.9%; in test [3], -11.6%; in test [4], 4.28%; in test [5], 0.914%.

With `CCC(C)NC(=O)c1ccc2c(=O)n(C(C)C)c3nn(Cc4cccc(Cl)c4)c(=O)n3c2c1` (stereo not drawn), the activity change, negative = inhibition in test [1] was -4.63%; in test [2], 6.71%; in test [3] it was -4.36%; in test [4] it was -3.59%; in test [5], -0.16%.

Regarding `COc1cccc(CNc2nc3c(S(=O)(=O)c4ccc(F)cc4)nnn3c3ccccc23)c1`, the activity change, negative = inhibition was -7.82% in test [1]; 2.54% in test [2]; -0.007% in test [3]; -5.27% in test [4]; -7.06% in test [5].

Turning to `CCN(CC)Cc1ccc(C(=O)N(CCc2ccccc2OC)[C@@H]2CCNC2)cc1`, the activity change, negative = inhibition is -6.26% in test [1]; 4.39% in test [2]; -22.1% in test [3]; -12.3% in test [4]; 0.451% in test [5].

Regarding `Cc1ccc(Cl)cc1N1CCN(C(=O)CCc2nnc3n(CC(C)C)c(=O)c4ccccc4n23)CC1`, the activity change, negative = inhibition was -16.3% in test [1]; 4.5% in test [2]; 2.7% in test [3]; -19.6% in test [4]; -3.03% in test [5].

With `CC(C)COC(=O)c1ccc2c(c1)C1C=CCC1C(c1ccc(F)cc1)N2` (stereo not drawn), the activity change, negative = inhibition in test [1] is -9.31%; in test [2], -4.29%; in test [3], -6.49%; in test [4], -12.8%; in test [5] it was -10.6%.

For `Cc1ncc(CCCN(C)C)cc1Nc1ncc2c(n1)-c1ccc(C(F)(F)F)cc1NC(=S)C2`, the activity change, negative = inhibition is -27.1% in test [1]; -3.14% in test [2]; -50.7% in test [3]; -26.1% in test [4]; -10% in test [5].

For `O=C(c1ccccc1OC1CN(Cc2cccc(C(F)(F)F)c2)C1)N1CCOCC1`, the activity change, negative = inhibition in test [1] was -2.81%; in test [2], 0.336%; in test [3], 2.18%; in test [4] it was -3.66%; in test [5], 17.4%.

With `CC1CCCCCCCc2cc(O)cc(O)c2C(=O)O1` (stereo not drawn), the activity change, negative = inhibition was -44.1% in test [1]; -51.5% in test [2]; -60.8% in test [3]; -65.3% in test [4]; -62% in test [5].

`CC1CCCC(NC(=O)C2(C)Cn3c(nc4ccccc43)C(=O)N2CCCc2ccccc2)C1C` (stereo not drawn): the activity change, negative = inhibition in test [1] is 4.19%; in test [2] it was 0%; in test [3] it was 5.63%; in test [4], -2.74%; in test [5], -1.1%.

On to `N#Cc1cnc2c(Cl)cc(NCc3cn(CCN4CCCCCC4)nn3)cc2c1Nc1ccc(F)c(Cl)c1`, for which the activity change, negative = inhibition is -15.4% in test [1]; -24.3% in test [2]; -52.5% in test [3]; -69.8% in test [4]; -73.7% in test [5].

Consider `Oc1ccc(/C=C/c2cc(O)cc(O)c2)cc1`, for which the activity change, negative = inhibition was -21.3% in test [1]; -7.84% in test [2]; -10.3% in test [3]; -19.9% in test [4]; -9.19% in test [5].

For `O=C([C@@H]1C[C@H](F)CN1C(=O)c1cccs1)N1CCOCC1`, the activity change, negative = inhibition in test [1] is -6.16%; in test [2], -9.25%; in test [3], -5.54%; in test [4] it was -12.2%; in test [5], -9.86%.

Take `CCCn1c(=O)c2ccc(Cl)cc2n2c(=O)n(CC(=O)c3c(C)[nH]c4ccccc34)nc12`: the activity change, negative = inhibition came out at 7.04% in test [1]; 0% in test [2]; 10.9% in test [3]; 12.6% in test [4]; 9.02% in test [5].

Take `CCC(C)NC(=O)c1ccc2c(=O)n(C)c3nnc(SCC(=O)Nc4ccccc4F)n3c2c1` (stereo not drawn): the activity change, negative = inhibition is 3.36% in test [1]; -1.62% in test [2]; 2.61% in test [3]; 10.6% in test [4]; 4.62% in test [5].

Consider `c1cc2c(cc1OC1CCCCC1)c1c3n2CCNC3CCC1` (stereo not drawn), for which the activity change, negative = inhibition in test [1] was found to be 6.97%; in test [2] it was 1.83%; in test [3], 7.9%; in test [4], 8.04%; in test [5] it was 5%.

Take `COc1cc2c(cc1OC)C1Cc3ccc(OC)c(OC)c3CN1CC2` (stereo not drawn): the figures for the activity change, negative = inhibition in test [2], in test [4] and in test [5] were -3.63%, -13.3% and -2.26%, respectively.

Consider `COc1ccc(OCC2CN(c3ccc(OC)cc3)C(=O)c3ccc(C)nc3O2)cc1` (stereo not drawn), for which the activity change, negative = inhibition is -7.54% in test [1]; -5.88% in test [2]; -1.6% in test [3]; -7.77% in test [4]; -3% in test [5].

`COc1ccc(CN2C(=O)c3cc4c(OC)ccc(OC)c4n3CC2(C)C(=O)NC2CCCC2)cc1` (stereo not drawn): the activity change, negative = inhibition in test [1] stood at 1.85%; in test [2] it was 0.969%; in test [3] it was 6.96%; in test [4], 1.04%; in test [5], 0.024%.

In the case of `CNCC(=O)N1CCC(Cc2cccc(C(N)=O)c2)C1` (stereo not drawn), the activity change, negative = inhibition in test [1] is -0.346%; in test [2], -0.155%; in test [3], 0.042%; in test [4], -4.39%; in test [5] it was -0.492%.

With `CCC(C)NC(=O)c1ccc2c(=O)n(C(C)C)c3nn(CC(=O)c4ccc(OC)cc4)c(=O)n3c2c1` (stereo not drawn), the activity change, negative = inhibition in test [1] was found to be 3.11%; in test [2], 0%; in test [3] it was 6.51%; in test [4] it was 2.98%; in test [5], 4.25%.

With `Cc1ccc(N2C(=O)c3cc(-c4ccccc4)nn3CC2(C)C(=O)NCc2ccccc2)cc1Cl` (stereo not drawn), the activity change, negative = inhibition in test [1] worked out at 6.04%; in test [2] it was 1.6%; in test [3], 5.11%; in test [4] it was 7.87%; in test [5] it was 1.02%.

With `COc1ccc(CN2C(=O)c3cc4oc(C)cc4n3CC2(C)C(=O)NC2CCCCCCC2)cc1` (stereo not drawn), the activity change, negative = inhibition in test [1] was -7.98%; in test [2] it was -10.1%; in test [3] it was 0.576%; in test [4], -13.2%; in test [5] it was -7.38%.

On to `CCOC(=O)c1cnc2ccc(C)cc2c1Nc1cccc(C)c1`, for which the activity change, negative = inhibition is 3.12% in test [1]; -0.621% in test [2]; -2.85% in test [3]; -4.35% in test [4]; -5.5% in test [5].

Take `C=C1C(=O)O[C@@H]2C[C@@H](C)[C@]34C[C@]5(C(=O)O[C@H]6CC(C)=C([C@H](C)CCCO)[C@H](OC(=O)C(C)CC)[C@H]65)[C@@H](C(C)=C3C[C@@H]12)[C@H]4OC(C)=O` (stereo partly drawn): the activity change, negative = inhibition is -4.93% in test [1]; -4.24% in test [2]; -3.88% in test [3]; -17.2% in test [4]; -14% in test [5].

For `COC(=O)c1ncn2c1C(=O)N(c1ccc(OC)c(OC)c1)C(C)(C(=O)NCc1ccccc1OC)C2` (stereo not drawn), the activity change, negative = inhibition in test [1] was found to be 3.2%; in test [2], 0.565%; in test [3], 9.82%; in test [4], 8.18%; in test [5], 7.7%.

For the molecule `COc1ccc(NC(=O)N2CCc3c2ccc2ccccc32)cc1N1CCN(C)CC1`, the activity change, negative = inhibition in test [1] is 0.402%; in test [2] it was 7.44%; in test [3] it was -0.387%; in test [4], -11.5%; in test [5] it was -25.9%.

As to `C/C(=C\CCC1(C)C2CC3C(C2)C31C)C(=O)O` (stereo not drawn), the activity change, negative = inhibition in test [1] is -10.5%; in test [2] it was -12.6%; in test [3] it was -1.99%; in test [4] it was -28%; in test [5], -5.76%.
